# Laboratory results as given in paper PMC10668032.
# Some of the results follow. At the low end of the ranking, values are background and their order means little.
# Molecular target: SIX1 homeodomain (reference allele) (UniProt Q15475)
# Assay: universal protein binding microarray
# Conditions: Universal all-10-mer PBM (8x60K, AMADID 030236), 300 nM GST-tagged protein, Alexa Fluor 488 anti-GST; buffer, salt, pH and temperature not stated; high values mean tight binding; most listed sequences are background and not binding sites; double strand, one strand shown
row,Sequence,binding signal [E-score]
1,CCAGGAAC,-0.0778
2,CCAATATC,0.369
3,ACTGGCAT,0.0418
4,AAAGGTAT,0.337
5,ATCTCGGA,0.22
6,GAGACTCC,-0.0466
7,ATCACATA,0.274
8,GTTCATAA,-0.0743
9,AAGCCTCA,-0.297
10,CAGGGAGA,0.0903
11,GTGCACAC,-0.0414
12,GAATGTCA,-0.259
13,ATTGAGGG,-0.121
14,ACTGCGGC,-0.274
15,AAGACGGG,0.0984
16,AAGGACCA,-0.182
17,CTTAGTCC,-0.213
18,ATTTCTAA,-0.231
19,TATTTGCA,-0.0858
20,ACAGTCGC,-0.246
21,CAATTTTC,-0.164
22,GGACCTCC,-0.335
23,ACTCCCTG,-0.136
24,AAGCCGAT,0.211
25,GATCAATA,0.291

row,Sequence,binding signal [E-score]
1,TGACGCCA,0.00364
2,CAATGACA,0.198
3,CAGTTTTC,-0.132
4,AACTTTCA,-0.304
5,TTCTGAAA,-0.141
6,CTATTTGA,-0.175
7,AAGCGACG,-0.304
8,ACACCGCA,0.351
9,CCAGCCTA,0.034
10,AAGAGCCG,-0.0656
11,ACCGCCTG,0.232
12,CTGACCGC,-0.181
13,CTAGCAGC,-0.247
14,CCTCCACC,-0.111
15,GCGCAGGA,-0.0736
16,ATTCGGTG,0.105
17,CTCCGTTA,-0.2
18,GATCCAAA,0.207
19,GGATACAA,0.354
20,GGTAAGAC,0.0152
21,TATACCAA,0.347
22,GTTACGTA,-0.0357
23,GGGCGCAC,-0.215
24,GATACGGA,0.455
25,GCTTCACC,-0.0697

row,Sequence,binding signal [E-score]
1,ACCAGGTG,-0.058
2,CCGTAGTA,0.016
3,AGAACTTC,-0.269
4,AGGAATTC,-0.216
5,ATCCCAAC,0.189
6,TTACTAAA,-0.0326
7,CCACGGCA,-0.0497
8,TCTCCACA,0.0349
9,AGCGTGAA,-0.19
10,CTGCTAAG,-0.116
11,AGCTCAAC,-0.0317
12,GATTTCCA,-0.209
13,AACCGTTG,-0.2
14,TAGTGATA,0.415
15,CGGGGAAG,0.0699
16,CTTATACA,-0.0862
17,AACATATC,0.378
18,AGGACCCT,-0.208
19,CGGTTGAG,-0.0062
20,AGATAACC,0.0384
21,ATGATGAA,-0.0389
22,CAACACTG,-0.231
23,CCACTAGG,-0.212
24,CGTCGAAG,-0.143
25,AACACCTG,0.267

row,Sequence,binding signal [E-score]
1,ATTGAATC,-0.067
2,AGTACTTC,-0.174
3,GTATTGAA,0.213
4,ACTAAATA,0.115
5,AATCTGAA,-0.108
6,ACCTAAGC,0.108
7,AAGCCATC,0.00588
8,GCCCCCCA,-0.183
9,AGGCTCAT,0.231
10,TTAGTAAA,-0.0186
11,ACTTATGC,-0.127
12,GGGCAAGA,0.0833
13,CTAGCGTC,-0.0267
14,ACTCTTCC,-0.205
15,GCCCGCCC,-0.139
16,AGTTCCGA,0.0514
17,CGCGATCA,0.272
18,CCATCGAC,-0.252
19,ATGCAGCC,-0.038
20,GCGTAAAC,-0.145
21,AAACCCGT,-0.0897
22,ACAACCGA,-0.0566
23,ATCTGAGA,0.292
24,AGAGGTTC,-0.00602
25,AAGAGGCA,-0.126

row,Sequence,binding signal [E-score]
1,TGGAAAAA,-0.0229
2,ACTGTAGC,-0.0697
3,AAAATATG,-0.0067
4,ATAAGTAA,-0.0603
5,ATCATTTA,0.193
6,CAATAATA,0.223
7,GCCGTGAA,-0.227
8,TGATAAAA,-0.0775
9,CTCATGTC,0.0335
10,CTGACGAA,-0.123
11,GTGGGCGA,0.00457
12,AGGGCACG,-0.0732
13,ATAACGTC,0.126
14,CTATTACC,0.027
15,CCACGTCA,-0.158
16,ACTCCGAA,-0.0841
17,CCGTCGAA,-0.148
18,AGAAGAGC,-0.165
19,AAGTAAAA,-0.24
20,AACGAGGG,-0.0678
21,CCCTCGCG,-0.0319
22,AAGTTACG,-0.0423
23,CATTTCTC,-0.205
24,CGACGAGA,-0.173
25,CGTAGCCA,-0.0417

row,Sequence,binding signal [E-score]
1,CCCTTAGG,-0.0538
2,AATTAAGA,-0.146
3,CGTCGCGC,-0.0395
4,CGAGAACG,-0.203
5,CAACGGAA,-0.158
6,ATAACGCC,-0.157
7,AATGCCTC,-0.143
8,ACGAACAG,-0.0368
9,ATGCTGTA,-0.0886
10,CCCGTGAG,-0.0774
11,ACCACCGA,0.164
12,TACGTATA,0.272
13,ACGGACCG,-0.268
14,GTCCTATA,0.0273
15,CTTTTGCC,0.00717
16,CCCTTCTC,0.274
17,CCGTAGTC,-0.105
18,AGCACTTG,-0.302
19,CCTATGCC,-0.201
20,AGCCTGAC,-0.253
21,CCTGCCTC,-0.21
22,GCTTTTGA,-0.167
23,ATGACCAC,-0.248
24,ATAACAAA,-0.208
25,CGGAGCCC,-0.247

row,Sequence,binding signal [E-score]
1,ACTAAGTC,-0.217
2,CTCGCCCA,0.0455
3,AATAAAGA,0.0192
4,GCGACGAA,-0.19
5,GGCGATCA,0.338
6,CTGTCCAC,-0.247
7,AATGTCGA,-0.276
8,CACAAGCA,-0.225
9,CTAGAGTC,-0.214
10,CTGATCGA,0.0295
11,AGTGGTAG,0.0831
12,GAGGACAA,-0.207
13,GGCGCTGA,-0.144
14,ACTTCGAG,-0.212
15,GTTGGGAA,-0.164
16,GAGTTCCA,-0.0689
17,GGTTAAGA,-0.0563
18,CATTCCGA,0.00948
19,CCGGTGAC,-0.0227
20,AGAATTTG,0.0245
21,CCCCCCCG,0.0652
22,CCCCGCGA,0.229
23,GGGTGCAC,-0.0522
24,GATACTCC,0.45
25,GGTGGTAC,-0.0698

row,Sequence,binding signal [E-score]
1,GCAGGCCA,-0.0447
2,GGTCTCAC,0.203
3,GCAATTAA,-0.156
4,CTTATCCC,0.235
5,ATTGAAAG,-0.175
6,CGCTGAAA,-0.286
7,ACGTACAA,-0.232
8,ACGCGTAC,-0.206
9,AGGGGTAA,0.0876
10,CCTCAAAA,-0.156
11,CATGGTAA,-0.024
12,CGCATGTA,0.0569
13,GTCGCCGA,-0.0221
14,GAGCATCA,-0.0944
15,ACTGAGTC,0.00613
16,ATGAATCA,-0.0867
17,AAATCATA,-0.0187
18,ATTCAAAC,-0.0635
19,AACTTAGT,-0.148
20,AGGGTTCC,0.0139
21,AGGATGTG,0.0034
22,ACATTTAG,-0.146
23,CAGATGTA,0.0903
24,ACTATATA,0.247
25,ATAAGGGC,-0.0133

row,Sequence,binding signal [E-score]
1,TGCGGCCA,-0.28
2,GATGCGGC,-0.112
3,AGGGGCCG,-0.238
4,CCCATGTC,-0.0913
5,AAATCAAC,-0.157
6,AGAGTCAT,-0.172
7,CGACGCAA,-0.0949
8,AACCCGTA,0.143
9,CAACAACC,-0.183
10,GGAACTCA,-0.021
11,CGGATGTC,0.0747
12,ATTACACC,0.318
13,AGGCCACT,-0.192
14,GGGTTCAA,-0.0134
15,TATATTAA,0.222
16,CTAAAGGC,-0.301
17,GGCACTGA,0.0152
18,ACGCAGCG,-0.0725
19,ACTTACAC,0.0852
